# Assay results published in the supplement of paper PMC8728848.
# The list shows a part of the results.
# Key:
# Test in all cases: glycan array binding signal (z-score within array); higher = stronger binding
# Conditions in all cases: glycan notation: IUPAC condensed, linker removed
# [1] = target: Gal(b1-4)GlcNAc(b1-2)[Gal(b1-4)GlcNAc(b1-4)]Man(a1-3)[Gal(b1-4)GlcNAc(b1-2)[Gal(b1-4)GlcNAc(b1-6)]Man(a1-6)]Man(b1-4)GlcNAc(b1-4)GlcNAc
# Summary of the method: (§1)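 From the Consortium for Functional Glycomics database, 3228 arrays were curated, keeping only those whose protein sequence was available. Binding is given as a within-array Z-score averaged across arrays sharing a protein sequence and across linkers. Negative Z-scores can be read as non-binding.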
# [2] = target: Gal(b1-4)GlcNAc(b1-2)[Gal(b1-4)GlcNAc(b1-4)]Man(a1-3)[GlcNAc(b1-4)][Gal(b1-4)GlcNAc(b1-2)Man(a1-6)]Man(b1-4)GlcNAc(b1-4)GlcNAc
# Summary of the method: as §1
# [3] = target: Gal(b1-4)GlcNAc(b1-2)[Gal(b1-4)GlcNAc(b1-4)]Man(a1-3)[GlcNAc(b1-4)][Gal(b1-4)GlcNAc(b1-2)[Gal(b1-4)GlcNAc(b1-6)]Man(a1-6)]Man(b1-4)GlcNAc(b1-4)GlcNAc
# Summary of the method: as §1
# [4] = target: Gal(b1-4)GlcNAc(b1-2)[Gal(b1-4)GlcNAc(b1-6)]Man(a1-6)[Gal(b1-4)GlcNAc(b1-2)Man(a1-3)]Man(b1-4)GlcNAc(b1-4)GlcNAc
# Summary of the method: as §1
# [5] = target: Gal(b1-4)GlcNAc(b1-2)[Gal(b1-4)GlcNAc(b1-6)]Man(a1-6)[Gal(b1-4)GlcNAc(b1-2)Man(a1-3)]Man(b1-4)GlcNAc(b1-4)[Fuc(a1-6)]GlcNAc
# Summary of the method: as §1
# [6] = target: Gal(b1-4)GlcNAc(b1-2)[Gal(b1-4)GlcNAc(b1-6)]Man(a1-6)[GlcNAc(b1-4)][Gal(b1-4)GlcNAc(b1-2)Man(a1-3)]Man(b1-4)GlcNAc(b1-4)GlcNAc
# Summary of the method: as §1
# [7] = target: Gal(b1-4)GlcNAc(b1-2)[Gal(b1-4)GlcNAc(b1-6)]Man(a1-6)[GlcNAc(b1-4)][Gal(b1-4)GlcNAc(b1-2)[Gal(b1-4)GlcNAc(b1-4)]Man(a1-3)]Man(b1-4)GlcNAc(b1-4)[Fuc(a1-6)]GlcNAc
# Summary of the method: as §1
# Gal(b1-4)GlcNAc(b1-3)Fuc = target: Gal(b1-4)GlcNAc(b1-3)Fuc
# Summary of the method: as §1
# [8] = target: Gal(b1-4)GlcNAc(b1-3)Gal(b1-3)GalNAc
# Summary of the method: as §1
# [9] = target: Gal(b1-4)GlcNAc(b1-3)Gal(b1-3)GlcNAc
# Summary of the method: as §1
# [10] = target: Gal(b1-4)GlcNAc(b1-3)Gal(b1-4)Glc
# Summary of the method: as §1
# [11] = target: Gal(b1-4)GlcNAc(b1-3)Gal(b1-4)GlcNAc
# Summary of the method: as §1
# [12] = target: Gal(b1-4)GlcNAc(b1-3)Gal(b1-4)GlcNAc(b1-2)Man(a1-3)[Gal(b1-4)GlcNAc(b1-3)Gal(b1-4)GlcNAc(b1-2)Man(a1-6)]Man(b1-4)GlcNAc(b1-4)GlcNAc
# Summary of the method: as §1
# [13] = target: Gal(b1-4)GlcNAc(b1-3)Gal(b1-4)GlcNAc(b1-2)Man(a1-3)[Gal(b1-4)GlcNAc(b1-3)Gal(b1-4)GlcNAc(b1-2)Man(a1-6)]Man(b1-4)GlcNAc(b1-4)[Fuc(a1-6)]GlcNAc
# Summary of the method: as §1
# [14] = target: Gal(b1-4)GlcNAc(b1-3)Gal(b1-4)GlcNAc(b1-2)[Gal(b1-4)GlcNAc(b1-3)Gal(b1-4)GlcNAc(b1-6)]Man(a1-6)[Gal(b1-4)GlcNAc(b1-3)Gal(b1-4)GlcNAc(b1-2)Man(a1-3)]Man(b1-4)GlcNAc(b1-4)GlcNAc
# Summary of the method: as §1
# [15] = target: Gal(b1-4)GlcNAc(b1-3)Gal(b1-4)GlcNAc(b1-2)[Gal(b1-4)GlcNAc(b1-3)Gal(b1-4)GlcNAc(b1-6)]Man(a1-6)[Gal(b1-4)GlcNAc(b1-3)Gal(b1-4)GlcNAc(b1-2)Man(a1-3)]Man(b1-4)GlcNAc(b1-4)[Fuc(a1-6)]GlcNAc
# Summary of the method: as §1
# [16] = target: Gal(b1-4)GlcNAc(b1-3)Gal(b1-4)GlcNAc(b1-3)Gal(b1-4)Glc
# Summary of the method: as §1
# [17] = target: Gal(b1-4)GlcNAc(b1-3)Gal(b1-4)GlcNAc(b1-3)Gal(b1-4)GlcNAc
# Summary of the method: as §1
# [18] = target: Gal(b1-4)GlcNAc(b1-3)Gal(b1-4)GlcNAc(b1-3)Gal(b1-4)GlcNAc(b1-2)Man(a1-3)[Gal(b1-4)GlcNAc(b1-3)Gal(b1-4)GlcNAc(b1-3)Gal(b1-4)GlcNAc(b1-2)Man(a1-6)]Man(b1-4)GlcNAc(b1-4)GlcNAc
# Summary of the method: as §1
# [19] = target: Gal(b1-4)GlcNAc(b1-3)Gal(b1-4)GlcNAc(b1-3)Gal(b1-4)GlcNAc(b1-2)Man(a1-3)[Gal(b1-4)GlcNAc(b1-3)Gal(b1-4)GlcNAc(b1-3)Gal(b1-4)GlcNAc(b1-2)Man(a1-6)]Man(b1-4)GlcNAc(b1-4)[Fuc(a1-6)]GlcNAc
# Summary of the method: as §1
# [20] = target: Gal(b1-4)GlcNAc(b1-3)Gal(b1-4)GlcNAc(b1-3)Gal(b1-4)GlcNAc(b1-2)[Gal(b1-4)GlcNAc(b1-3)Gal(b1-4)GlcNAc(b1-3)Gal(b1-4)GlcNAc(b1-6)]Man(a1-6)[Gal(b1-4)GlcNAc(b1-3)Gal(b1-4)GlcNAc(b1-3)Gal(b1-4)GlcNAc(b1-2)Man(a1-3)]Man(b1-4)GlcNAc(b1-4)[Fuc(a1-6)]GlcNAc
# Summary of the method: as §1
# [21] = target: Gal(b1-4)GlcNAc(b1-3)Gal(b1-4)GlcNAc(b1-3)Gal(b1-4)GlcNAc(b1-3)Gal(b1-4)GlcNAc(b1-2)Man(a1-3)[Gal(b1-4)GlcNAc(b1-3)Gal(b1-4)GlcNAc(b1-3)Gal(b1-4)GlcNAc(b1-3)Gal(b1-4)GlcNAc(b1-2)Man(a1-6)]Man(b1-4)GlcNAc(b1-4)GlcNAc
# Summary of the method: as §1
binder,measurement,setting,value
"CLEC5A (Homo sapiens), Q9NY25 (protein) MNWHMIISGLIVVVLKVVGMTLFLLYFPQIFNKSNDGFTTTRSYGTVSQIFGSSSPSPNGFITTRSYGTVCPKDWEFYQARCFFLSTSESSWNESRDFCKGKGSTLAIVNTPEKLKFLQDITDAEKYFIGLIYHREEKRWRWINNSVFNGNVTNQNQNFNCATIGLTKTFDAASCDISYRRICEKNAK",glycan array binding signal (z-score),[1],0.095
same,glycan array binding signal (z-score),[2],-0.168
same,glycan array binding signal (z-score),[3],-0.143
same,glycan array binding signal (z-score),[4],-0.159
same,glycan array binding signal (z-score),[5],-0.001
same,glycan array binding signal (z-score),[6],-0.162
same,glycan array binding signal (z-score),[7],-0.167
same,glycan array binding signal (z-score),Gal(b1-4)GlcNAc(b1-3)Fuc,-0.32
same,glycan array binding signal (z-score),[8],0.164
same,glycan array binding signal (z-score),[9],0.469
same,glycan array binding signal (z-score),[10],-0.341
same,glycan array binding signal (z-score),[11],-0.145
same,glycan array binding signal (z-score),[12],0.323
same,glycan array binding signal (z-score),[13],0.05
same,glycan array binding signal (z-score),[14],0.533
same,glycan array binding signal (z-score),[15],0.722
same,glycan array binding signal (z-score),[16],0.258
same,glycan array binding signal (z-score),[17],0.076
same,glycan array binding signal (z-score),[18],0.157
same,glycan array binding signal (z-score),[19],0.104
same,glycan array binding signal (z-score),[20],0.558
same,glycan array binding signal (z-score),[21],0.796
